# In the supplement of paper PMC8728848:
# This is one part of the list.
# B1: LTL (Lotus tetragonolobus), P19664 (protein)
# chain: VSFNYTEFKDDGSLILQGDAKIWTDGRLAMPTDPLVNNPKTTRSAGRALYATPVPIWDSATGNVASFVTSFNFLFVIRELKYTPTDGLVFFLAPVGTEIPSGSTGGFLGIFDGSNGFNQFVAVEFDSYHNIWDPKSLRSSHVGIDVNSIMSLKAVNWNRVSGSLEKATIIYDSQTNILSVVMTSQNGQITTIYGTIDLKTVLPEKVSVGFSATTGNPEREKHDIYSWSFTSTLKEPEEQA
# Columns and labels:
# Experiment in all cases: glycan array binding signal (z-score within array); higher = stronger binding
# Details in all cases: glycan notation: IUPAC condensed, linker removed
# [1] = biological target: Neu5Ac(a2-6)Gal(b1-4)GlcNAc(b1-2)Man
# Summary of the method: (§1)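 Negative Z-scores can be read as non-binding. The Z-score is calculated within each array and then averaged across arrays of one protein sequence at different concentrations or buffers and across linkers. Arrays, 3228 in all, were curated from the Consortium for Functional Glycomics database and kept only where the protein sequence was available.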
# [2] = biological target: Neu5Ac(a2-6)Gal(b1-4)GlcNAc(b1-2)Man(a1-3)Man(b1-4)GlcNAc(b1-4)GlcNAc
# Summary of the method: as §1
# [3] = biological target: Neu5Ac(a2-6)Gal(b1-4)GlcNAc(b1-2)Man(a1-3)[Gal(b1-4)GlcNAc(b1-2)Man(a1-6)]Man(b1-4)GlcNAc(b1-4)GlcNAc
# Summary of the method: as §1
# [4] = biological target: Neu5Ac(a2-6)Gal(b1-4)GlcNAc(b1-2)Man(a1-3)[GlcNAc(b1-2)Man(a1-6)]Man(b1-4)GlcNAc(b1-4)GlcNAc
# Summary of the method: as §1
# [5] = biological target: Neu5Ac(a2-6)Gal(b1-4)GlcNAc(b1-2)Man(a1-3)[GlcNAc(b1-4)][Neu5Ac(a2-6)Gal(b1-4)GlcNAc(b1-2)Man(a1-6)]Man(b1-4)GlcNAc(b1-4)GlcNAc
# Summary of the method: as §1
# [6] = biological target: Neu5Ac(a2-6)Gal(b1-4)GlcNAc(b1-2)Man(a1-3)[Man(a1-6)]Man(b1-4)GlcNAc(b1-4)GlcNAc
# Summary of the method: as §1
# [7] = biological target: Neu5Ac(a2-6)Gal(b1-4)GlcNAc(b1-2)Man(a1-3)[Neu5Ac(a2-3)Gal(b1-4)GlcNAc(b1-2)Man(a1-6)]Man(b1-4)GlcNAc(b1-4)GlcNAc
# Summary of the method: as §1
# [8] = biological target: Neu5Ac(a2-6)Gal(b1-4)GlcNAc(b1-2)Man(a1-3)[Neu5Ac(a2-6)Gal(b1-4)GlcNAc(b1-2)Man(a1-6)]Man(b1-4)GlcNAc(b1-4)GlcNAc
# Summary of the method: as §1
# [9] = biological target: Neu5Ac(a2-6)Gal(b1-4)GlcNAc(b1-2)Man(a1-3)[Neu5Ac(a2-6)Gal(b1-4)GlcNAc(b1-2)Man(a1-6)]Man(b1-4)GlcNAc(b1-4)[Fuc(a1-6)]GlcNAc
# Summary of the method: as §1
# [10] = biological target: Neu5Ac(a2-6)Gal(b1-4)GlcNAc(b1-2)Man(a1-6)Man(b1-4)GlcNAc(b1-4)GlcNAc
# Summary of the method: as §1
# [11] = biological target: Neu5Ac(a2-6)Gal(b1-4)GlcNAc(b1-2)Man(a1-6)[Gal(b1-4)GlcNAc(b1-2)Man(a1-3)]Man(b1-4)GlcNAc(b1-4)GlcNAc
# Summary of the method: as §1
# [12] = biological target: Neu5Ac(a2-6)Gal(b1-4)GlcNAc(b1-2)Man(a1-6)[GlcNAc(b1-2)Man(a1-3)]Man(b1-4)GlcNAc(b1-4)GlcNAc
# Summary of the method: as §1
# [13] = biological target: Neu5Ac(a2-6)Gal(b1-4)GlcNAc(b1-2)Man(a1-6)[Man(a1-3)]Man(b1-4)GlcNAc(b1-4)GlcNAc
# Summary of the method: as §1
# [14] = biological target: Neu5Ac(a2-6)Gal(b1-4)GlcNAc(b1-2)[Neu5Ac(a2-6)Gal(b1-4)GlcNAc(b1-4)]Man(a1-3)[GlcNAc(b1-4)][Neu5Ac(a2-6)Gal(b1-4)GlcNAc(b1-2)[Neu5Ac(a2-6)Gal(b1-4)GlcNAc(b1-6)]Man(a1-6)]Man(b1-4)GlcNAc(b1-4)GlcNAc
# Summary of the method: as §1
# [15] = biological target: Neu5Ac(a2-6)Gal(b1-4)GlcNAc(b1-2)[Neu5Ac(a2-6)Gal(b1-4)GlcNAc(b1-4)]Man(a1-3)[GlcNAc(b1-4)][Neu5Ac(a2-6)Gal(b1-4)GlcNAc(b1-4)Man(a1-6)]Man(b1-4)GlcNAc(b1-4)GlcNAc
# Summary of the method: as §1
# [16] = biological target: Neu5Ac(a2-6)Gal(b1-4)GlcNAc(b1-2)[Neu5Ac(a2-6)Gal(b1-4)GlcNAc(b1-6)]Man(a1-6)[Neu5Ac(a2-6)Gal(b1-4)GlcNAc(b1-2)Man(a1-3)][GlcNAc(b1-4)]Man(b1-4)GlcNAc(b1-4)GlcNAc
# Summary of the method: as §1
# [17] = biological target: Neu5Ac(a2-6)Gal(b1-4)GlcNAc(b1-3)Gal(b1-3)GlcNAc
# Summary of the method: as §1
# [18] = biological target: Neu5Ac(a2-6)Gal(b1-4)GlcNAc(b1-3)Gal(b1-4)GlcNAc
# Summary of the method: as §1
# [19] = biological target: Neu5Ac(a2-6)Gal(b1-4)GlcNAc(b1-3)Gal(b1-4)GlcNAc(b1-2)Man(a1-3)[Neu5Ac(a2-6)Gal(b1-4)GlcNAc(b1-3)Gal(b1-4)GlcNAc(b1-2)Man(a1-6)]GalNAc
# Summary of the method: as §1
# [20] = biological target: Neu5Ac(a2-6)Gal(b1-4)GlcNAc(b1-3)Gal(b1-4)GlcNAc(b1-3)Gal(b1-4)GlcNAc
# Summary of the method: as §1
# [21] = biological target: Neu5Ac(a2-6)Gal(b1-4)GlcNAc(b1-3)Gal(b1-4)GlcNAc(b1-3)Gal(b1-4)GlcNAc(b1-2)Man(a1-3)[Neu5Ac(a2-6)Gal(b1-4)GlcNAc(b1-3)Gal(b1-4)GlcNAc(b1-3)Gal(b1-4)GlcNAc(b1-2)Man(a1-6)]GalNAc
# Summary of the method: as §1
# [22] = biological target: Neu5Ac(a2-6)Gal(b1-4)GlcNAc(b1-3)Gal(b1-4)GlcNAc(b1-3)GalNAc
# Summary of the method: as §1
# [23] = biological target: Neu5Ac(a2-6)Gal(b1-4)GlcNAc(b1-3)Gal(b1-4)GlcNAc(b1-3)[Neu5Ac(a2-6)Gal(b1-4)GlcNAc(b1-3)Gal(b1-4)GlcNAc(b1-6)]GalNAc
# Summary of the method: as §1
# [24] = biological target: Neu5Ac(a2-6)Gal(b1-4)GlcNAc(b1-3)Gal(b1-4)GlcNAc(b1-6)[Gal(b1-3)]GalNAc
# Summary of the method: as §1
# [25] = biological target: Neu5Ac(a2-6)Gal(b1-4)GlcNAc(b1-3)Gal(b1-4)[Fuc(a1-3)]GlcNAc(b1-3)Gal(b1-4)[Fuc(a1-3)]GlcNAc
# Summary of the method: as §1
# [26] = biological target: Neu5Ac(a2-6)Gal(b1-4)GlcNAc(b1-3)GalNAc
# Summary of the method: as §1
# [27] = biological target: Neu5Ac(a2-6)Gal(b1-4)GlcNAc(b1-3)[Neu5Ac(a2-6)Gal(b1-4)GlcNAc(b1-6)]GalNAc
# Summary of the method: as §1
# [28] = biological target: Neu5Ac(a2-6)Gal(b1-4)GlcNAc(b1-6)GalNAc
# Summary of the method: as §1
# [29] = biological target: Neu5Ac(a2-6)Gal(b1-4)GlcNAc(b1-6)[Gal(b1-3)GlcNAc(b1-3)]Gal(b1-4)Glc
# Summary of the method: as §1
# [30] = biological target: Neu5Ac(a2-6)Gal(b1-4)GlcNAc(b1-6)[Gal(b1-3)]GalNAc
# Summary of the method: as §1
# [31] = biological target: Neu5Ac(a2-6)Gal(b1-4)GlcNAc6S
# Summary of the method: as §1
# Neu5Ac(a2-6)GalNAc = biological target: Neu5Ac(a2-6)GalNAc
# Summary of the method: as §1
# [32] = biological target: Neu5Ac(a2-6)GalNAc(b1-4)GlcNAc
# Summary of the method: as §1
# [33] = biological target: Neu5Ac(a2-6)GalNAc(b1-4)GlcNAc6S
# Summary of the method: as §1
binder,measurement,setting,value
B1,glycan array binding signal (z-score),[1],-0.258
same,glycan array binding signal (z-score),[2],-0.193
same,glycan array binding signal (z-score),[3],-0.198
same,glycan array binding signal (z-score),[4],-0.031
same,glycan array binding signal (z-score),[5],-0.386
same,glycan array binding signal (z-score),[6],-0.047
same,glycan array binding signal (z-score),[7],-0.318
same,glycan array binding signal (z-score),[8],-0.148
same,glycan array binding signal (z-score),[9],0.043
same,glycan array binding signal (z-score),[10],-0.313
same,glycan array binding signal (z-score),[11],-0.242
same,glycan array binding signal (z-score),[12],-0.209
same,glycan array binding signal (z-score),[13],-0.15
same,glycan array binding signal (z-score),[14],-0.15
same,glycan array binding signal (z-score),[15],-0.378
same,glycan array binding signal (z-score),[16],0.023
same,glycan array binding signal (z-score),[17],-0.138
same,glycan array binding signal (z-score),[18],-0.232
same,glycan array binding signal (z-score),[19],1.11
same,glycan array binding signal (z-score),[20],-0.226
same,glycan array binding signal (z-score),[21],2.02
same,glycan array binding signal (z-score),[22],-0.146
same,glycan array binding signal (z-score),[23],3.76
same,glycan array binding signal (z-score),[24],0.304
same,glycan array binding signal (z-score),[25],-0.039
same,glycan array binding signal (z-score),[26],-0.176
same,glycan array binding signal (z-score),[27],-0.267
same,glycan array binding signal (z-score),[28],-0.12
same,glycan array binding signal (z-score),[29],-0.287
same,glycan array binding signal (z-score),[30],0.02
same,glycan array binding signal (z-score),[31],-0.256
same,glycan array binding signal (z-score),Neu5Ac(a2-6)GalNAc,-0.349
same,glycan array binding signal (z-score),[32],-0.299
same,glycan array binding signal (z-score),[33],-0.327
